# From PubChem BioAssay AID588501 (NMMLSC, 2011)
# Out of some 360,000 compounds screened, about 420 (0.12%) were called active. Inconclusive results, whose numbers are uncertain, are shown with a selection of clear calls. No stated cut-off is given here; in the data, active means inhibition above about 30%; inconclusive means no clear call, values can overlap the other calls; inactive means below that.
# Target: Lethal factor (Bacillus anthracis) (UniProt P15917)
# Experiment: anthrax lethal factor cleavage blockers – biochemical, multiplex microsphere, MLPCN library, primary screen (AID 588501); further: plate controls were buffer without enzyme for full effect and enzyme alone for no effect
# Conditions: multiplex microsphere protease cleavage assay, LF; at 10 µM; hits give high values
# UniProt P15917, sequence (P15917 whole entry, looked up): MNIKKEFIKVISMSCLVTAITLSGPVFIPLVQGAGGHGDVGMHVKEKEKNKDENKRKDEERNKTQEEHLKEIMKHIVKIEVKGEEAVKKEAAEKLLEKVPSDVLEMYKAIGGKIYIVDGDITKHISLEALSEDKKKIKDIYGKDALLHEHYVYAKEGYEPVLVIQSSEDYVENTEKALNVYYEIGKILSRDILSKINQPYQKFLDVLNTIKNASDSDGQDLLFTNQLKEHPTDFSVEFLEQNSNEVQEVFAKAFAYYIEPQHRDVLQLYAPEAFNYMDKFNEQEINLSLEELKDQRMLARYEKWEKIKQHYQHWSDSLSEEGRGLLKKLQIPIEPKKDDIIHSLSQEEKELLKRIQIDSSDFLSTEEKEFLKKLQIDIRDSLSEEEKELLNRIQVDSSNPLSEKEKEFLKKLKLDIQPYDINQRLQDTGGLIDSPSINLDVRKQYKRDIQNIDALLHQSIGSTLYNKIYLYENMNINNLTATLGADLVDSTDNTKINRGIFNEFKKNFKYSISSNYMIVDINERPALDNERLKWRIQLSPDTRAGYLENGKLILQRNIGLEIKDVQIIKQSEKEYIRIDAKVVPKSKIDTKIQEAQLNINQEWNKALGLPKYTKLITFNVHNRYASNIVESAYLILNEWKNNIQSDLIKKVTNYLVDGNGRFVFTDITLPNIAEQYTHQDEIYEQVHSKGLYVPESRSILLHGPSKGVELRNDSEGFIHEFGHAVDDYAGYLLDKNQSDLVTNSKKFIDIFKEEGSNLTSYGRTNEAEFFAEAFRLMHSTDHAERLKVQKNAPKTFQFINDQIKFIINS
row,Compound,inhibition
1,CCN(C(=O)COC(=O)c1cc(-c2ccc(C)o2)nc2ccccc12)C1CCS(=O)(=O)C1 (stereo unspecified),inactive: -3.7%
2,Cc1ccnc(N/C=C(\C#N)c2nc(-c3cccc(Br)c3)cs2)c1,active: 39.4%
3,CC(C)NC(=O)Nc1ccc2c(c1)C(=O)N([C@H](C)CO)C[C@H](C)[C@@H](CN(C)S(=O)(=O)c1ccc(F)cc1)O2,inactive: -5.5%
4,O=C(C[n+]1cc(Br)cc2ccccc21)c1ccc(F)cc1,active: 36.5%
5,Cc1cc(C(=O)NCC2CCCO2)sc1C (stereo unspecified),inconclusive: -1.9%
6,COc1ccc(CCNC(=O)c2sc3nc4n(c(=O)c3c2C)CCC4)cc1,inconclusive: 0.5%
7,CC1(CNC(=O)C(=O)NCC2(C)CO2)CO1 (stereo unspecified),inactive: -5.7%
8,CN(C)c1ccnc(NCc2ccccc2)c1C#N,inconclusive: -15.2%
9,CCc1c(C)nc(N)nc1N1N=C1SCC(N)=O,inconclusive: 12.1%
10,CN=C1c2cc3c(Br)c(OC)ccc3n2CCN1C,inactive: -0.2%
11,O=C(NCC(=O)N1CCC(Cc2ccccc2)CC1)c1ccc(Cl)cc1,inconclusive: 6.8%
12,Cc1nn(C(C)(C)C)c(OC(=O)c2cccs2)c1Sc1ccccc1,inconclusive: -16.8%
13,Cc1c(C(=O)N(CC(C)C)c2c(N)n(Cc3ccccc3)c(=O)[nH]c2=O)sc2nc3n(c(=O)c12)CCC3,active: 32.3%
14,Cc1noc(C)c1C(=O)OC(C)C(=O)N(C)c1ccccc1 (stereo unspecified),inconclusive: 1.2%
15,CCCCC(C(=O)O)C(C)CC(=O)Nc1nccs1 (stereo unspecified),inactive: 4.1%
16,O=C(c1cccc(S(=O)(=O)N2CCCC2)c1)N1CCN(S(=O)(=O)c2cccc(Cl)c2)CC1,inconclusive: -0.5%
17,COCCNC(=O)CSc1nc2ccc(N3CCOCC3)cc2c(=O)n1Cc1ccc(OC)cc1,inactive: -1.3%
18,Cc1cccc(C)c1NC(=O)Cn1nc(-c2ccccc2)nc1-c1ccccc1,inconclusive: -28.7%
19,O=C1OCc2cc(NC(=O)C3CCCO3)ccc21 (stereo unspecified),inconclusive: -19.8%

row,Compound,inhibition
1,Cn1c(SCc2ccc(Br)cc2)nnc1-c1ccccn1,inconclusive: -3.8%
2,COc1ccc(OC)c(S(=O)(=O)N2Cc3ccccc3CC2C(=O)O)c1 (stereo unspecified),inconclusive: -38.1%
3,Cc1cc(C)c2c(c1)NC(C(=O)O)C1CC=CC21 (stereo unspecified),inconclusive: -9.8%
4,COCCn1c(=S)[nH]c2cc(C(=O)N3CCN(Cc4ccc5c(c4)OCO5)CC3)ccc2c1=O,inconclusive: -6.6%
5,Cn1nc(C(F)(F)F)cc1-c1ccc(/C=C(\C#N)C(=O)c2ccccc2)s1,inconclusive: -12.1%
6,COc1ccc(-c2csc(NC(=O)C3=COCCO3)n2)c(OC)c1,inactive: 4%
7,O=C(Nc1ccccc1N1CCOCC1)c1ccc(Br)o1,inconclusive: -5.7%
8,COc1ccccc1C(CNC(=O)c1ccc(NS(=O)(=O)c2ccc(C(C)=O)cc2)cc1)N1CCCC1 (stereo unspecified),inconclusive: -1.3%
9,Cc1cc(C(=O)Nc2ccc(Cl)cc2)c(C)n1-c1ccccc1,inconclusive: -18%
10,CCNC(=S)NN=C1CCC(C(C)(C)C)CC1 (stereo unspecified),inconclusive: -10.8%
11,Cc1occc1C(=O)O/N=C(\N)c1ccccc1,inconclusive: -16.6%
12,Nc1ccn([C@@H]2O[C@H](C(=O)N3CCN(Cc4ccccn4)CC3)[C@@H](O)[C@H]2O)c(=O)n1,inactive: 5.4%
13,O=C(Nc1nc2c(s1)CCCC2)c1cc2n(n1)C(C(F)(F)F)CC(C1CC1)N2 (stereo unspecified),inconclusive: -4.6%
14,CCc1nnc(NC(=O)COc2ccccc2[N+](=O)[O-])s1,active: 30.1%
15,COc1ccc(C(=O)COC(=O)c2cc(=O)[nH]c3ccccc23)c(OC)c1,inconclusive: 1.5%
16,CCN(CC)C(=S)SCC(=O)Nc1ncc2c(n1)CC(C)(C)CC2=O,inconclusive: 0.4%
17,CC(C)c1ccccc1OCC(=O)Nc1cc(S(=O)(=O)N2CCOCC2)ccc1N1CCCC1,inconclusive: 5.1%
18,Cc1ccc(C(=O)NCCN2CCNC2=O)cc1,inconclusive: -22.2%
19,CCOC(=O)c1cn2nc(Oc3ccccc3)ccc2n1,inconclusive: 26.3%

row,Compound,inhibition
1,CC(C)(C)c1ccc(Oc2ccc(NC(=O)c3ccccc3C(=O)O)cn2)cc1,inconclusive: -14%
2,N#Cc1c(C(F)(F)F)cc(-c2ccccc2)nc1SCC(=O)N1CCOCC1,inconclusive: 2.3%
3,CCOC(=O)c1ccc(-c2ccc(C=O)o2)cc1,inactive: -0.3%
4,COc1ccc(C(=O)Nc2ccc(C(=O)c3ccccc3)cc2)cc1,inconclusive: -3.9%
5,O=C(Nc1ccc(F)cc1)Nc1ccc(NC(=O)c2ccccc2O)cc1,inconclusive: -5.3%
6,Cc1cc(C)cc(N2CCCC2=O)c1,inconclusive: -43.4%
7,C=CCn1c(O)c(N=NC(=S)Nc2ccc(OC)c(Cl)c2)c2ccccc21,active: 30.4%
8,CCN(CC(=O)Nc1c(F)cccc1F)C(=O)c1ccc(N2CCOCC2)c([N+](=O)[O-])c1,inconclusive: -4.5%
9,CCOC(=O)C1=C(C)NC(C)=C(C(=O)OCC)C1C(=O)OCC(=O)NCCc1ccc(S(N)(=O)=O)cc1,inconclusive: -6.9%
10,CC(=O)Nc1ccc(S(=O)(=O)N2CCCC3CCCCC32)cc1 (stereo unspecified),inconclusive: -1.4%
11,N#CC1=C(N)OC2=C(C(=O)CCC2)C1c1ccccc1 (stereo unspecified),inconclusive: -32.9%
12,CCOC(=O)COc1nc2c(c(-c3ccco3)c1C#N)CCc1ccccc1-2,inconclusive: -10.9%
13,CCC(=O)c1ccc(OCC(=O)OC(C)C(=O)Nc2c(C)n(C)n(-c3ccccc3)c2=O)cc1 (stereo unspecified),inconclusive: 9.4%
14,Cc1ccc(C(=O)NCC(=O)NCCSc2ccc(Br)cc2)cc1,inconclusive: -4.9%
15,CCN(C1CCCCC1)S(=O)(=O)CCNC(=O)c1ccc2c(c1)OCO2,inconclusive: 1.3%
16,Cc1ccc(C)c2nc3sc(C(=O)N4CCCc5ccccc54)c(N)c3cc12,active: 29.9%
17,Cc1noc(C)c1C(=O)OCC(=O)c1c[nH]c2ccccc12,active: 53.2%
18,CSc1cccc(NC(=O)CN(c2cccc(C)c2)S(C)(=O)=O)c1,inconclusive: 15.1%
